# The data scatter; read single values as rough.
# Assay: amyloid nucleation score relative to library mode (yeast Sup35 reporter selection) (log enrichment difference); higher = more amyloid nucleation; sequences are the first 22 residues of the Bri2 peptide extended by up to 12 random residues
# Settings: random library (experiment): 2;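 active = nucleation score significantly above 0 at FDR 0.05; inactive = not significantly above 0 or absent from output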
# 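Also: [psi-pin-] Saccharomyces cerevisiae expressing SupN fusions, induced by 100 µM Cu2SO4, selected 7 d at 30 °C without adenine and uracil, scored by deep sequencing of output versus input.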
row,Sequence,amyloid nucleation score
1,EASNCFAIRHFENKFAVETLICGTVETMRGYFQV,inactive
2,EASNCFAIRHFENKFAVETLICGTVY,-0.191
3,EASNCFAIRHFENKFAVETLICGVESNVVSPGMA,4.25
4,EASNCFAIRHFENKFAVETLICGVGCWVRELVLW,inactive
5,EASNCFAIRHFENKFAVETLICGVGGVFRVCLIY,inactive
6,EASNCFAIRHFENKFAVETLICGVGSK,3.41
7,EASNCFAIRHFENKFAVETLICGVIKIVTYIGDQ,inactive
8,EASNCFAIRHFENKFAVETLICGVIKTAWNHI,inactive
9,EASNCFAIRHFENKFAVETLICGVINDQSINGFC,5.51
10,EASNCFAIRHFENKFAVETLICGVIPYENVSATW,0.616
11,EASNCFAIRHFENKFAVETLICGVKCTVLLIGMT,inactive
12,EASNCFAIRHFENKFAVETLICGVL,2.85
13,EASNCFAIRHFENKFAVETLICGVLALPHLSIGR,5.3
14,EASNCFAIRHFENKFAVETLICGVLCDSGSICGV,5.71

# Same assay, conditions: random library (experiment): 3
row,Sequence,amyloid nucleation score
1,EASNCFAIRHFENKFAVETLICGTLCFVRGWSTG,4.54
2,EASNCFAIRHFENKFAVETLICGTLMTTTNDRWC,7.81
3,EASNCFAIRHFENKFAVETLICGTLYFTMDSE,8.62
4,EASNCFAIRHFENKFAVETLICGTMMSMCGDGRE,7.14
5,EASNCFAIRHFENKFAVETLICGTMSPLCSRCEW,4.76
6,EASNCFAIRHFENKFAVETLICGTRARWPDRSGQ,inactive
7,EASNCFAIRHFENKFAVETLICGTRFKGCYVGVW,inactive
8,EASNCFAIRHFENKFAVETLICGTSHWVSLAGYA,inactive
9,EASNCFAIRHFENKFAVETLICGTSVLSCYVLA,inactive
10,EASNCFAIRHFENKFAVETLICGTSVRRFVNALG,inactive
11,EASNCFAIRHFENKFAVETLICGTTCRLWFQMIR,inactive
12,EASNCFAIRHFENKFAVETLICGTV,inactive
13,EASNCFAIRHFENKFAVETLICGTVWGRIIGVRM,inactive
14,EASNCFAIRHFENKFAVETLICGVALIGPRLRSL,inactive
15,EASNCFAIRHFENKFAVETLICGVARMPGMCEVE,inactive
16,EASNCFAIRHFENKFAVETLICGVCRPVEGGREA,inactive
17,EASNCFAIRHFENKFAVETLICGVCRRTCLFMLT,inactive
18,EASNCFAIRHFENKFAVETLICGVDS,4.47
19,EASNCFAIRHFENKFAVETLICGVDVTDSDLELV,inactive
20,EASNCFAIRHFENKFAVETLICGVERTACMCRDG,4.42
21,EASNCFAIRHFENKFAVETLICGVGH,inactive
22,EASNCFAIRHFENKFAVETLICGVGKRSCRCKGK,8.22
23,EASNCFAIRHFENKFAVETLICGVGQTALWGYGW,inactive
24,EASNCFAIRHFENKFAVETLICGVGTSYEVDVTR,inactive
25,EASNCFAIRHFENKFAVETLICGVGVFVR,inactive
26,EASNCFAIRHFENKFAVETLICGVGWEIAETWYT,2.49
27,EASNCFAIRHFENKFAVETLICGVHNR,inactive
28,EASNCFAIRHFENKFAVETLICGVHVTSATGSDG,5.82
29,EASNCFAIRHFENKFAVETLICGVKNSRLRHDSA,inactive
